The list shows a part of the results.
B1: Q9UKT9 (peptide)
chain: FECEQCGAFFTQKGNLLRHIKL
B2: Q9UKT9 (peptide)
chain: FQCDQCGAMFTQKGNLLRHIKL
B3: Q9UKT9 (peptide)
chain: FKCDVCGAVFTQKGNLLRHIKL
B4: Q9UKT9 (peptide)
chain: FDCEVCGATFTQKGNLLRHIKL
B5: Q9UKT9 (peptide)
chain: FCCDVCGAWFTQKGNLLRHIKL
B6: Q9UKT9 (peptide)
chain: LQCNQCGFACTQKGNLLRHIKL
B7: Q9UKT9 (peptide)
chain: LQCEICGFTCTQKGNLLRHIKL
B8: Q9UKT9 (peptide)
chain: FQCNQCGRYFTQKGNLLRHIKL
B9: Q9UKT9 (peptide)
chain: FDCEVCGAWFTQKGNLLRHIKL
B10: Q9UKT9 (peptide)
chain: FDCDICGAGFTQKGNLLRHIKL
B11: Q9UKT9 (peptide)
chain: LECPICGFICTQKGNLLRHIKL
B12: Q9UKT9 (peptide)
chain: FMCPICGRFFTQKGNLLRHIKL
B13: Q9UKT9 (peptide)
chain: FLCDICGAKFTQKGNLLRHIKL
B14: Q9UKT9 (peptide)
chain: FWCNVCGAKFTQKGNLLRHIKL
B15: Q9UKT9 (peptide)
chain: FFCPICGHSFTQKGNLLRHIKL
B16: Q9UKT9 (peptide)
chain: FVCNVCGAPFTQKGNLLRHIKL
B17: Q9UKT9 (peptide)
chain: FCCSVCGHIFTQKGNLLRHIKL
B18: Q9UKT9 (peptide)
chain: FECEQCGAWFTQKGNLLRHIKL
B19: Q9UKT9 (peptide)
chain: FGCDICGAGFTQKGNLLRHIKL
B20: Q9UKT9 (peptide)
chain: FYCDVCGARFTQKGNLLRHIKL
B21: Q9UKT9 (peptide)
chain: FECPQCGAPFTQKGNLLRHIKL
B22: Q9UKT9 (peptide)
chain: FCCEICGAIFTQKGNLLRHIKL
B23: Q9UKT9 (peptide)
chain: FDCPVCGADFTQKGNLLRHIKL
B24: Q9UKT9 (peptide)
chain: FVCPQCGARFTQKGNLLRHIKL
B25: Q9UKT9 (peptide)
chain: LGCNQCGFWCTQKGNLLRHIKL
B26: Q9UKT9 (peptide)
chain: FKCNQCGALFTQKGNLLRHIKL
B27: Q9UKT9 (peptide)
chain: FVCPQCGAAFTQKGNLLRHIKL
B28: Q9UKT9 (peptide)
chain: FNCDICGADFTQKGNLLRHIKL
B29: Q9UKT9 (peptide)
chain: FNCDICGATFTQKGNLLRHIKL
B30: Q9UKT9 (peptide)
chain: FNCEVCGAEFTQKGNLLRHIKL
B31: Q9UKT9 (peptide)
chain: FECPVCGAVFTQKGNLLRHIKL
B32: Q9UKT9 (peptide)
chain: FICEVCGATFTQKGNLLRHIKL
B33: Q9UKT9 (peptide)
chain: FLCNVCGAPFTQKGNLLRHIKL
B34: Q9UKT9 (peptide)
chain: FDCEICGHTFTQKGNLLRHIKL
B35: Q9UKT9 (peptide)
chain: LECNQCGFMCTQKGNLLRHIKL
B36: Q9UKT9 (peptide)
chain: FVCNICGAYFTQKGNLLRHIKL
B37: Q9UKT9 (peptide)
chain: FNCEQCGAGFTQKGNLLRHIKL
B38: Q9UKT9 (peptide)
chain: FSCPQCGAPFTQKGNLLRHIKL
B39: Q9UKT9 (peptide)
chain: FVCPICGAAFTQKGNLLRHIKL
B40: Q9UKT9 (peptide)
chain: FWCNICGAWFTQKGNLLRHIKL
B41: Q9UKT9 (peptide)
chain: FFCPICGACFTQKGNLLRHIKL
B42: Q9UKT9 (peptide)
chain: LACNQCGFLCTQKGNLLRHIKL
B43: Q9UKT9 (peptide)
chain: FWCDVCGAMFTQKGNLLRHIKL
B44: Q9UKT9 (peptide)
chain: LYCEICGFSCTQKGNLLRHIKL
B45: Q9UKT9 (peptide)
chain: FDCSVCGHLFTQKGNLLRHIKL
B46: Q9UKT9 (peptide)
chain: FVCEQCGALFTQKGNLLRHIKL
B47: Q9UKT9 (peptide)
chain: FCCEVCGADFTQKGNLLRHIKL
B48: Q9UKT9 (peptide)
chain: FYCNQCGRNFTQKGNLLRHIKL
B49: Q9UKT9 (peptide)
chain: FHCNQCGAMFTQKGNLLRHIKL
B50: Q9UKT9 (peptide)
chain: FNCEICGAEFTQKGNLLRHIKL

target: no compound (DMSO); assay: log2 fold change of degron read counts, EGFP-low vs EGFP+ sorted cells; higher = lower degron-EGFP level without compound (poor expression or instability); conditions: compound: DMSO control; 18 h
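Note: jurkat cells carrying a lentiviral library of mutant zinc finger degrons fused to EGFP plus mCherry, mCherry+ cells FACS sorted, degron abundance counted by next-generation sequencing.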

Sequence	log2 fold change of degron read counts
B1	-1.58
B2	-0.901
B3	-1.53
B4	-1.79
B5	-0.418
B6	0.27
B7	-0.977
B8	-0.129
B9	0.146
B10	-0.875
B11	0.301
B12	1.04
B13	-2.55
B14	-0.503
B15	0.281
B16	-0.797
B17	0.583
B18	-0.977
B19	-0.679
B20	-0.955
B21	-2.19
B22	-0.62
B23	-1.02
B24	-0.498
B25	2.42

Sequence	log2 fold change of degron read counts
B26	-1.34
B27	-0.305
B28	-1.6
B29	-1.33
B30	-2.83
B31	0.0657
B32	-1.93
B33	0.217
B34	-1.23
B35	-0.429
B36	-0.147
B37	-1.6
B38	-0.92
B39	-0.242
B40	1.48
B41	0.441
B42	1.26
B43	-0.575
B44	0.195
B45	1.09
B46	-1.36
B47	-1.36
B48	0.0789
B49	-0.369
B50	-2.48

From the supplement of paper PMC12645437, “Orthogonal IMiD-Degron Pairs Induce Selective Protein Degradation in Cells” (ACS Chemical Biology, 2025)
